# Experimental data from the supplement of paper PMC8728848.
# The other results are listed elsewhere or left out.
# B1: HPA (Helix pomatia), Q575S3 (protein)
# chain: MWAHLTGLLLICALSLSAAQRAQTGEIDCGSDSSWPKDPSDNPNRDNTREIVKHVTFSPQFCREPKVILSVTTLDAEHTKNLRYEARLKSVSPSGLSASCYSWHDGTIYRMKLSWLAVED
# How the values were obtained:
# Assay in all cases: glycan array binding signal (z-score within array); higher = stronger binding
# Details in all cases: glycan notation: IUPAC condensed, linker removed
# [1] = target: Gal(b1-4)GlcNAc(b1-2)[Gal(b1-4)GlcNAc(b1-6)]Man(a1-6)[Gal(b1-4)GlcNAc(b1-2)Man(a1-3)]Man(b1-4)GlcNAc(b1-4)GlcNAc
# In short: (§1)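 Columns mapping to the same glycan were averaged after glycan names were converted to IUPAC-condensed notation. The data come from 3228 arrays in the Consortium for Functional Glycomics database, limited to those with an available protein sequence. Binding is reported as a within-array Z-score averaged across arrays of one protein sequence and across linkers.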
# [2] = target: Gal(b1-4)GlcNAc(b1-2)[Gal(b1-4)GlcNAc(b1-6)]Man(a1-6)[Gal(b1-4)GlcNAc(b1-2)Man(a1-3)]Man(b1-4)GlcNAc(b1-4)[Fuc(a1-6)]GlcNAc
# In short: as §1
# [3] = target: Gal(b1-4)GlcNAc(b1-2)[Gal(b1-4)GlcNAc(b1-6)]Man(a1-6)[GlcNAc(b1-4)][Gal(b1-4)GlcNAc(b1-2)Man(a1-3)]Man(b1-4)GlcNAc(b1-4)GlcNAc
# In short: as §1
# [4] = target: Gal(b1-4)GlcNAc(b1-2)[Gal(b1-4)GlcNAc(b1-6)]Man(a1-6)[GlcNAc(b1-4)][Gal(b1-4)GlcNAc(b1-2)[Gal(b1-4)GlcNAc(b1-4)]Man(a1-3)]Man(b1-4)GlcNAc(b1-4)[Fuc(a1-6)]GlcNAc
# In short: as §1
# [5] = target: Gal(b1-4)GlcNAc(b1-3)Gal(b1-3)GalNAc
# In short: as §1
# [6] = target: Gal(b1-4)GlcNAc(b1-3)Gal(b1-3)GlcNAc
# In short: as §1
# [7] = target: Gal(b1-4)GlcNAc(b1-3)Gal(b1-4)Glc
# In short: as §1
# [8] = target: Gal(b1-4)GlcNAc(b1-3)Gal(b1-4)GlcNAc
# In short: as §1
# [9] = target: Gal(b1-4)GlcNAc(b1-3)Gal(b1-4)GlcNAc(b1-2)Man(a1-3)[Gal(b1-4)GlcNAc(b1-3)Gal(b1-4)GlcNAc(b1-2)Man(a1-6)]Man(b1-4)GlcNAc(b1-4)GlcNAc
# In short: as §1
# [10] = target: Gal(b1-4)GlcNAc(b1-3)Gal(b1-4)GlcNAc(b1-2)Man(a1-3)[Gal(b1-4)GlcNAc(b1-3)Gal(b1-4)GlcNAc(b1-2)Man(a1-6)]Man(b1-4)GlcNAc(b1-4)[Fuc(a1-6)]GlcNAc
# In short: as §1
# [11] = target: Gal(b1-4)GlcNAc(b1-3)Gal(b1-4)GlcNAc(b1-2)[Gal(b1-4)GlcNAc(b1-3)Gal(b1-4)GlcNAc(b1-6)]Man(a1-6)[Gal(b1-4)GlcNAc(b1-3)Gal(b1-4)GlcNAc(b1-2)Man(a1-3)]Man(b1-4)GlcNAc(b1-4)GlcNAc
# In short: as §1
# [12] = target: Gal(b1-4)GlcNAc(b1-3)Gal(b1-4)GlcNAc(b1-2)[Gal(b1-4)GlcNAc(b1-3)Gal(b1-4)GlcNAc(b1-6)]Man(a1-6)[Gal(b1-4)GlcNAc(b1-3)Gal(b1-4)GlcNAc(b1-2)Man(a1-3)]Man(b1-4)GlcNAc(b1-4)[Fuc(a1-6)]GlcNAc
# In short: as §1
# [13] = target: Gal(b1-4)GlcNAc(b1-3)Gal(b1-4)GlcNAc(b1-3)Gal(b1-4)GlcNAc
# In short: as §1
# [14] = target: Gal(b1-4)GlcNAc(b1-3)Gal(b1-4)GlcNAc(b1-3)Gal(b1-4)GlcNAc(b1-2)Man(a1-3)[Gal(b1-4)GlcNAc(b1-3)Gal(b1-4)GlcNAc(b1-3)Gal(b1-4)GlcNAc(b1-2)Man(a1-6)]Man(b1-4)GlcNAc(b1-4)GlcNAc
# In short: as §1
# [15] = target: Gal(b1-4)GlcNAc(b1-3)Gal(b1-4)GlcNAc(b1-3)Gal(b1-4)GlcNAc(b1-2)Man(a1-3)[Gal(b1-4)GlcNAc(b1-3)Gal(b1-4)GlcNAc(b1-3)Gal(b1-4)GlcNAc(b1-2)Man(a1-6)]Man(b1-4)GlcNAc(b1-4)[Fuc(a1-6)]GlcNAc
# In short: as §1
# [16] = target: Gal(b1-4)GlcNAc(b1-3)Gal(b1-4)GlcNAc(b1-3)Gal(b1-4)GlcNAc(b1-2)[Gal(b1-4)GlcNAc(b1-3)Gal(b1-4)GlcNAc(b1-3)Gal(b1-4)GlcNAc(b1-6)]Man(a1-6)[Gal(b1-4)GlcNAc(b1-3)Gal(b1-4)GlcNAc(b1-3)Gal(b1-4)GlcNAc(b1-2)Man(a1-3)]Man(b1-4)GlcNAc(b1-4)[Fuc(a1-6)]GlcNAc
# In short: as §1
# [17] = target: Gal(b1-4)GlcNAc(b1-3)Gal(b1-4)GlcNAc(b1-3)Gal(b1-4)GlcNAc(b1-3)Gal(b1-4)GlcNAc(b1-2)Man(a1-3)[Gal(b1-4)GlcNAc(b1-3)Gal(b1-4)GlcNAc(b1-3)Gal(b1-4)GlcNAc(b1-3)Gal(b1-4)GlcNAc(b1-2)Man(a1-6)]Man(b1-4)GlcNAc(b1-4)GlcNAc
# In short: as §1
# [18] = target: Gal(b1-4)GlcNAc(b1-3)Gal(b1-4)GlcNAc(b1-3)Gal(b1-4)GlcNAc(b1-3)Gal(b1-4)GlcNAc(b1-2)Man(a1-3)[Gal(b1-4)GlcNAc(b1-3)Gal(b1-4)GlcNAc(b1-3)Gal(b1-4)GlcNAc(b1-3)Gal(b1-4)GlcNAc(b1-2)Man(a1-6)]Man(b1-4)GlcNAc(b1-4)[Fuc(a1-6)]GlcNAc
# In short: as §1
# [19] = target: Gal(b1-4)GlcNAc(b1-3)Gal(b1-4)GlcNAc(b1-3)Gal(b1-4)GlcNAc(b1-3)Gal(b1-4)GlcNAc(b1-2)[Gal(b1-4)GlcNAc(b1-3)Gal(b1-4)GlcNAc(b1-3)Gal(b1-4)GlcNAc(b1-3)Gal(b1-4)GlcNAc(b1-6)]Man(a1-6)[Gal(b1-4)GlcNAc(b1-3)Gal(b1-4)GlcNAc(b1-3)Gal(b1-4)GlcNAc(b1-3)Gal(b1-4)GlcNAc(b1-2)Man(a1-3)]Man(b1-4)GlcNAc(b1-4)[Fuc(a1-6)]GlcNAc
# In short: as §1
# [20] = target: Gal(b1-4)GlcNAc(b1-3)Gal(b1-4)GlcNAc(b1-3)Gal(b1-4)GlcNAc(b1-3)Gal(b1-4)GlcNAc(b1-3)Gal(b1-4)GlcNAc(b1-2)Man(a1-3)[Gal(b1-4)GlcNAc(b1-3)Gal(b1-4)GlcNAc(b1-3)Gal(b1-4)GlcNAc(b1-3)Gal(b1-4)GlcNAc(b1-3)Gal(b1-4)GlcNAc(b1-2)Man(a1-6)]Man(b1-4)GlcNAc(b1-4)GlcNAc
# In short: as §1
# [21] = target: Gal(b1-4)GlcNAc(b1-3)Gal(b1-4)GlcNAc(b1-3)Gal(b1-4)GlcNAc(b1-3)Gal(b1-4)GlcNAc(b1-3)Gal(b1-4)GlcNAc(b1-2)Man(a1-3)[Gal(b1-4)GlcNAc(b1-3)Gal(b1-4)GlcNAc(b1-3)Gal(b1-4)GlcNAc(b1-3)Gal(b1-4)GlcNAc(b1-3)Gal(b1-4)GlcNAc(b1-2)Man(a1-6)]Man(b1-4)GlcNAc(b1-4)[Fuc(a1-6)]GlcNAc
# In short: as §1
# [22] = target: Gal(b1-4)GlcNAc(b1-3)Gal(b1-4)GlcNAc(b1-3)Gal(b1-4)GlcNAc(b1-3)Gal(b1-4)GlcNAc(b1-3)Gal(b1-4)GlcNAc(b1-2)[Gal(b1-4)GlcNAc(b1-3)Gal(b1-4)GlcNAc(b1-3)Gal(b1-4)GlcNAc(b1-3)Gal(b1-4)GlcNAc(b1-3)Gal(b1-4)GlcNAc(b1-6)]Man(a1-6)[Gal(b1-4)GlcNAc(b1-3)Gal(b1-4)GlcNAc(b1-3)Gal(b1-4)GlcNAc(b1-3)Gal(b1-4)GlcNAc(b1-3)Gal(b1-4)GlcNAc(b1-2)Man(a1-3)]Man(b1-4)GlcNAc(b1-4)[Fuc(a1-6)]GlcNAc
# In short: as §1
# [23] = target: Gal(b1-4)GlcNAc(b1-3)Gal(b1-4)GlcNAc(b1-3)Gal(b1-4)GlcNAc(b1-3)Gal(b1-4)GlcNAc(b1-3)Gal(b1-4)GlcNAc(b1-3)Gal(b1-4)GlcNAc(b1-2)Man(a1-3)[Gal(b1-4)GlcNAc(b1-3)Gal(b1-4)GlcNAc(b1-3)Gal(b1-4)GlcNAc(b1-3)Gal(b1-4)GlcNAc(b1-3)Gal(b1-4)GlcNAc(b1-3)Gal(b1-4)GlcNAc(b1-2)Man(a1-6)]Man(b1-4)GlcNAc(b1-4)GlcNAc
# In short: as §1
binder,measurement,setting,value
B1,glycan array binding signal (z-score),[1],-0.243
same,glycan array binding signal (z-score),[2],-0.246
same,glycan array binding signal (z-score),[3],-0.245
same,glycan array binding signal (z-score),[4],-0.252
same,glycan array binding signal (z-score),[5],-0.265
same,glycan array binding signal (z-score),[6],-0.264
same,glycan array binding signal (z-score),[7],-0.266
same,glycan array binding signal (z-score),[8],-0.262
same,glycan array binding signal (z-score),[9],-0.125
same,glycan array binding signal (z-score),[10],-0.246
same,glycan array binding signal (z-score),[11],-0.214
same,glycan array binding signal (z-score),[12],-0.225
same,glycan array binding signal (z-score),[13],-0.263
same,glycan array binding signal (z-score),[14],-0.152
same,glycan array binding signal (z-score),[15],-0.245
same,glycan array binding signal (z-score),[16],-0.25
same,glycan array binding signal (z-score),[17],-0.242
same,glycan array binding signal (z-score),[18],-0.253
same,glycan array binding signal (z-score),[19],-0.228
same,glycan array binding signal (z-score),[20],-0.248
same,glycan array binding signal (z-score),[21],-0.253
same,glycan array binding signal (z-score),[22],-0.242
same,glycan array binding signal (z-score),[23],-0.231
